The chains are these.
B1: LINE1-mini (parent)
chain: GGCAGAGCUCAACACAGCGUGGCAAAGUGGCUGUGGCUAGACUGCC

Read counts are not given, so values of variants with three or more changes are uncertain.

The variants in this data set derive from B1. As to the kind of experiment: self-cleavage, relative activity (ratio to wild type); higher = more cleavage; in vitro, sequencing; the parent is a self-cleaving ribozyme.
C13G G21U A26G G30U U43A: the self-cleavage is 0.04.

As to C13G G19U G21A, the self-cleavage amounted to 0.31. As to C13U A14C G22A U32C C42G, the self-cleavage came to 0.03.

Regarding C13G G22A U28A G30U C31A U43C, the self-cleavage is 0.06. Regarding C13G C18A A25C U28C U34A U38C G40A, the self-cleavage turned out to be 0.05.

On to C13G C15G C18U U34A A39U C46U, for which the self-cleavage worked out at 0.14. For the variant C13U A14C G19C G44A, the self-cleavage is 0.03.

As to C13U C31A G36U, the self-cleavage turned out to be 0.08. Regarding C13G U20A U34G G40U, the self-cleavage worked out at 0.03. The result for C13G A14C C46U reads 0.03; that for C13U C18A A26C, 0.05; that for C13U A16C C18A G30U C37G U43C, 0.2. The result for C13G G36A C46A reads 0.01; that for C13G C31U G36A C37A A41C C46G, 0.

Regarding C13U C18U G30C G35C C45U, the self-cleavage was found to be 0.11. For the variant C13G G19U G44C, the self-cleavage came to 0.23. Next, C13A U34C G36C C45G: 0.02; C13U C31G U34G: 0.01; C13U C31G U34C: 0.

Turning to C13U C23A G36A, the self-cleavage was 0.14.

Turning to C13G A25C G29U C31A, the self-cleavage is 0.08. For C13U A25C U32C, the self-cleavage amounted to 0.16. Take C13G A14C C31G: the self-cleavage is 0.02.

With C13A U43C C46A, the self-cleavage was 0.14. For C13U A14U C15G, the self-cleavage came out at 0.07. Regarding C13G G17U A25G U32C C46G, the self-cleavage is 0.05. Take C13G G35C C37G A39G: the self-cleavage worked out at 0.01. Consider C13U G17A A41C G44A, for which the self-cleavage was found to be 0.04. As to C13G A16C G19U G22A, the self-cleavage was 0.01. The result for C13U A14C G19A G33U reads 0.07.

C13G C23G A39C: the self-cleavage amounted to 0.12.

With C13U C42U U43C, the self-cleavage amounted to 0.08.

On to C13G G22U G29A C42U, for which the self-cleavage was found to be 0.07. Turning to C13U A14G G29C G35C, the self-cleavage was determined as 0.06. With C13G G44U C46A, the self-cleavage was 0.02. Turning to C13A U34A G40U, the self-cleavage was 0.05.

As for C13G U20G A25G U43C, the self-cleavage was determined as 0.02. As for C13U C23A C37U, the self-cleavage came out at 0.05. As for C13G U43A C46A, the self-cleavage is 0.06. Consider C13G G33U U34A U43A C45U, for which the self-cleavage turned out to be 0.02. Take C13G G19U C23U: the self-cleavage was found to be 0.07.

As to C13U C18U A25G, the self-cleavage turned out to be 0.07. Consider C13U A14U G29A, for which the self-cleavage was 0.07. As to C13U C23U G30U C45A, the self-cleavage is 0.02.

For the variant C13G G17U G21C G22U, the self-cleavage stood at 0.1. For the variant C13U A16U G33U C42A, the self-cleavage came to 0.07. C13G A16G G22A A25U G40A U43A C46U: the self-cleavage stood at 0. As to C13G C18U A26U, the self-cleavage amounted to 0.07. C13U A24C G36U: the self-cleavage is 0.07. In the case of C13G G22A G30C G35U, the self-cleavage is 0.15. With C13G C18G C23U U28A G36U C45U, the self-cleavage stood at 0. Turning to C13U C15U A26G C46A, the self-cleavage is 0.05.

C13G C23U G30A G35U: the self-cleavage was determined as 1.68. Regarding C13U C15U G21U G22A A25G, the self-cleavage was 0.08. Regarding C13G A14C A39U, the self-cleavage turned out to be 0.05. The result for C13G G33A C37A C42U reads 0.01; that for C13G C18U G29U C37G, 0.13; that for C13G C18U G19A U38A, 0.08. Next, C13G G21A C31G C46U: 0.04; C13U C42U G44A C46U: 0.08.

C13G U20C U28G: the self-cleavage amounted to 0.06. Turning to C13U A25G G27C G30U A41C C42G U43G, the self-cleavage amounted to 0.04. The result for C13U C18U G21U reads 0.08. Take C13U A16U G44U: the self-cleavage is 0.03. C13G C23A G35U: the self-cleavage came out at 1.18. On to C13U C23A C42A C46U, for which the self-cleavage stood at 0.24.

In the case of C13A U34C U38A, the self-cleavage was found to be 0.07. With C13U C15G C31A C37U, the self-cleavage was 0.06. As to C13G G21U G36C, the self-cleavage stood at 0.02. On to C13U C18U U32C G35C, for which the self-cleavage came to 0.11.

C13G G17U U20G A24C U43C: the self-cleavage turned out to be 0. For C13G C31U G40U, the self-cleavage is 0.01.

For C13G C18U G19A C46U, the self-cleavage came to 0.39.

C13G U20C G36A: the self-cleavage is 0.03. Regarding C13U C18U G19U A24C, the self-cleavage is 0.05. Consider C13G C18G C23A A24U G36U C45U, for which the self-cleavage turned out to be 0.04. Turning to C13U A24G C45A, the self-cleavage was 0.03. The result for C13G A16C G36A reads 0.01; that for C13U C23A G36U G40A C46G, 0.17. Turning to C13G G17A G21C C37G, the self-cleavage is 0.08. On to C13U A14U A16U A41U, for which the self-cleavage stood at 0.08.

On to C13U A16G G19U U32A, for which the self-cleavage was 0.02. With C13U A25C G27A G44U, the self-cleavage was found to be 0.01. As to C13G A26U A39U, the self-cleavage was 0.06. For C13G G27A G29C, the self-cleavage is 0.09. Regarding C13U C15U A16C G36U C37U, the self-cleavage turned out to be 0.02. Next, C13A U34G C42A: 0.03. Regarding C13U C15A A16G C18U G30A, the self-cleavage is 0.11.

With C13G A14G G33A U38C, the self-cleavage was 0.06.

In the case of C13G G27U G35U, the self-cleavage came to 0.56. As to C13G A25G C31U G36A C37U, the self-cleavage came to 0.08. The result for C13U C23U G36U reads 0.05. With C13G C18A G22C G44A C45G C46G, the self-cleavage turned out to be 0.03. Take C13G G22A C42G G44U: the self-cleavage stood at 0.11. C13G A14C A26G G30A: the self-cleavage worked out at 0.07. With C13G C15A U20C C31A G33U C37G, the self-cleavage amounted to 0.03.

Consider C13G G29U C42A, for which the self-cleavage was 0.11.

As for C13U A14C C23G A26C G44A, the self-cleavage was 0.05. The result for C13G C18G A41G C45G reads 0.01; that for C13G A16U G29A, 0.05.

C13G A14C C18G G33A: the self-cleavage amounted to 0.05. The result for C13G A25G A41U reads 0.02; that for C13U A14G G17C C18G G44A, 0.01. For the variant C13U A16G G29U, the self-cleavage amounted to 0.12. For C13G C15U G22U U38C, the self-cleavage came to 0.04.

For C13G G27U C31U, the self-cleavage stood at 0.1. The result for C13G C15U U32A A39C reads 0.03; that for C13U C23A G27A G30U, 0.16. The result for C13G G22U C23A A39C reads 0.07; that for C13U A26G C37G, 0.

Turning to C13G G22C G36U, the self-cleavage stood at 0.02. The result for C13G C18G U34A reads 0.19; that for C13U C15A A41G, 0.16. With C13U A16G U34A, the self-cleavage stood at 0. Turning to C13G G17C G30C U38G, the self-cleavage stood at 0.03. Take C13U A25U U32C U34A U43A: the self-cleavage came to 0.13. As for C13U C18G A24G U38C G40C C45U, the self-cleavage amounted to 0.05. On to C13A U34A G35A, for which the self-cleavage is 0.14.

On to C13G A14U G17U U34C, for which the self-cleavage was found to be 0.06. For the variant C13A U34A G36U, the self-cleavage came out at 0.05. Next, C13U A26C G33C: 0.06; C13G G29U G44A: 0.17; C13U A14U U28A: 0.06. Regarding C13U C37U A41G, the self-cleavage was 0.06. The result for C13G A16U U20A A24C U28C reads 0.06; that for C13G G17U C18U G35U, 0.04. Turning to C13U A25C G35A, the self-cleavage is 0.42. For C13U C18U C37U C45U, the self-cleavage was determined as 0.05. With C13G G17A G35C C45G, the self-cleavage worked out at 0.08. Take C13G A16G G27C U28A: the self-cleavage came out at 0.02. The result for C13U C18G U28A G33A G44A reads 0.16; that for C13G G27U U43A, 0.05; that for C13G G29A A39U G40U U43A, 0.09. As to C13U A16U G30U, the self-cleavage came out at 0.15. On to C13U C15U A39U, for which the self-cleavage came out at 0.08. Consider C13G G33A G35A, for which the self-cleavage was found to be 0.17. Consider C13U C15U G40A, for which the self-cleavage came out at 0.14. For the variant C13G G21C C23U G30U, the self-cleavage is 0.04.

For C13U C15G C46U, the self-cleavage was determined as 0.03. As to C13G G21C A41U, the self-cleavage amounted to 0.14. Regarding C13U A14U A16C G19A C45G, the self-cleavage was 0.06. Turning to C13G A14C A24C C42U G44C, the self-cleavage amounted to 0.14. C13U C18A U32G U43G: the self-cleavage came to 0.01. Regarding C13G A24U A26G, the self-cleavage is 0.05. As for C13U A24C G29A U34A G44U, the self-cleavage was found to be 0. Next, C13G C18U U43C: 0.06; C13U A16U U38A A39U: 0.02; C13G G36U U43G C45G: 0.13.

C13G A14C A24G G40A U43C: the self-cleavage came out at 0.03. Regarding C13G G36A C45U, the self-cleavage is 0.38. Turning to C13U C18G U32G, the self-cleavage was 0.03. For C13U C23U A26U G36A, the self-cleavage came out at 0.33. C13G G19U C23G U28C C31A A39C: the self-cleavage turned out to be 0. Turning to C13U A24C U32C, the self-cleavage is 0.03. In the case of C13U C15U U34G G36A, the self-cleavage turned out to be 0.09.

As for C13G G27C G35U A41G, the self-cleavage stood at 0.06. Take C13G U20A C46A: the self-cleavage turned out to be 0.09. As for C13U A24G G30C, the self-cleavage was determined as 0.08. Next, C13U G17A G19C U32C: 0.14; C13G C23U G30A: 0.21; C13G A16U C31A: 0. The result for C13U A14G A16U reads 0.07. Next, C13G G22A G40U: 0.07. Consider C13G G29A C42U U43G G44U, for which the self-cleavage stood at 1.22. Take C13U C23U A26G U32G U34A C45G: the self-cleavage turned out to be 0.02.

C13G G30U G40C: the self-cleavage came out at 0.02.

For C13U A14C G21U U28G, the self-cleavage worked out at 0.02.

These data come from the RNAGym collection of RNA variant scans (doi:10.7554/elife.90254).
